Test results reported in PMC6919601, “Identification of Plasmodium dipeptidyl aminopeptidase allosteric inhibitors by high throughput screening” (PLoS ONE, 2019).
Out of some 110,000 compounds screened, about 230 (0.21%) showed an effect of 50% or more. The list shows a part of the results.

Molecular target: DPAP1 (Plasmodium falciparum, UniProt Q8IIJ9)
Assay: primary screen, percent inhibition; read by cleavage of a fluorogenic dipeptide substrate; higher = more effect of the substance
Parameters: species or system P. falciparum D10 trophozoite lysates; single well
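Note: 30 min substrate incubation versus DMSO and 10 µM JCP410 controls.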

Sequence of DPAP1 (Q8IIJ9 whole entry, looked up): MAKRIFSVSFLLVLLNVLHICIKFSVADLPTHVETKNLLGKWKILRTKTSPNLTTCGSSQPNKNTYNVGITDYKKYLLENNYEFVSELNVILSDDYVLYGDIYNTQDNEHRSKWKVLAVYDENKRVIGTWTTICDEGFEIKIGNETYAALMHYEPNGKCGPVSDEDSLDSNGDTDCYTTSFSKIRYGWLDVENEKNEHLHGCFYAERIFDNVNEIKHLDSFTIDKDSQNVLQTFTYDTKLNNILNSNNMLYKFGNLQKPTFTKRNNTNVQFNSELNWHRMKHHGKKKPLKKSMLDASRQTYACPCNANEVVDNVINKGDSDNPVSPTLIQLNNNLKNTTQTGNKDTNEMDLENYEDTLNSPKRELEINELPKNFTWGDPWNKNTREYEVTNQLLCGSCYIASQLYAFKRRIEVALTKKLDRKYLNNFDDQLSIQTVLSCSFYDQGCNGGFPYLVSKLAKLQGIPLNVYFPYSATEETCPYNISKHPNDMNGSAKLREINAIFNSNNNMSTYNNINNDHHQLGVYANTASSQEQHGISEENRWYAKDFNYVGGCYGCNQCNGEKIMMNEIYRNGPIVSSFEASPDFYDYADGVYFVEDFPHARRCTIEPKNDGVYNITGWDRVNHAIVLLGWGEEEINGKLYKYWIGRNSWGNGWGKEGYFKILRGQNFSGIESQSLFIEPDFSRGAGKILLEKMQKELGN

Compound	% Inhibition @ 10 uM [%]
CCOC(=O)N1CCc2c(sc3c2C(=O)NC(c2cc(Br)ccc2OC)N3)C1 (stereo not shown)	4.08
CCOC(=O)N1CCC(NC(=O)c2cc3c(s2)-c2ccc(Cl)cc2S(=O)(=O)C3)CC1	4.14
N#CC1(NC(=O)[C@H](Cc2c(F)cccc2F)NC(=O)c2ccc(-c3ccccc3Cl)cc2)CCN(C2CC2)CC1	-6.98
CCOC(=O)C1=C(Cc2ccc(C)cc2)C(=O)c2ccccc2C1=O	5.29
NC(=O)C1CCCN(CCCc2ccccc2)C1 (stereo not shown)	-2.02
CC(C)C[C@H](NC(=O)c1ccc(-c2ccc(F)cc2)cc1)C(=O)NCC#N	-1.41
COc1ccc(-c2ccc(C#N)c(SCC(=O)Nc3ccc(OC)c(OC)c3)n2)cc1	-5.01
C=CCn1c(COc2cccc3ccc(C)nc23)nnc1SCC(N)=O	2.12
COc1ccc(C2C3=C(CCCC3=O)OC3=C2C(=O)CCC3)cc1OC	2.47
Cc1nn(CC(=O)NCc2ccc3c(c2)OCO3)c(=O)c2nn(-c3ccccc3)c(C)c12	-1.59
Cc1ccc(CNC(=O)C2CCC(Cn3c(=O)[nH]c4ccsc4c3=O)CC2)cc1 (stereo not shown)	-3.27
COc1ccc([N+](=O)[O-])cc1C1NC(=O)c2c(sc3c2CCCC3)N1 (stereo not shown)	12
Cc1cccc(-c2nc(CS(=O)CC(=O)NCCCSC3CCCCC3)c(C)o2)c1 (stereo not shown)	-2.85
O=[N+]([O-])c1ccc(OCSc2ccccc2)cc1	-6.29
CC(=O)Nc1ccc(NC(=O)COc2ccc(C)cc2Br)cc1	-2.8
COc1ccc(N2CCN(C3CCN(Cc4ccccc4)CC3)CC2)cc1	-4.75
Cc1ccccc1OCCSc1nc(-c2cccs2)nc2cc(=O)[nH]n12	-4
Cc1nn(C(C)C(=O)NCc2ccccc2Cl)c(=O)c2nn(-c3ccccc3)c(C)c12 (stereo not shown)	0.227
C#CC(C)(CC)NS(=O)(=O)c1cc(Cl)ccc1OC (stereo not shown)	-0.403
COC(=O)c1ccc(NC(=O)CN2CCN(c3ccccc3C)CC2)cc1	1.62
COc1ccc(C)cc1NC(=O)C1C2C=CC(O2)C1C(=O)O (stereo not shown)	1.79

Compound	% Inhibition @ 10 uM [%]
O=C(Cn1c(=O)[nH]c2ccsc2c1=O)N(Cc1ccccc1)Cc1ccccc1	-0.58
CCOc1ccc(C(=O)Nc2cc(C)cc(C)c2)cc1	1.71
Cc1cc(=O)oc2c1c(C)nn2-c1ccc(C(=O)OC(C)C)cc1	0.708
CCCc1[nH]nc2c1C(c1ccc(F)cc1F)C(C#N)=C(N)O2 (stereo not shown)	-0.661
COCCCNC(=O)CN1C(=O)c2ccccc2S1(=O)=O	-7.96
N#Cc1cc2c(nc1SCC(N)=O)CCC2	9.01
Cc1cc(NC(=O)NC(=O)c2cccc(OC(F)(F)C(F)F)c2)[nH]n1	-1.38
CC1(C)Cc2ccccc2C2=C(C(=O)N3CCCCC3)C(=O)C(=O)N21	2.22
COC(=O)c1c[nH]n2c(NC3CCC(C)CC3)c(-c3ccc(C)cc3)nc12 (stereo not shown)	11.6
CCOc1ccc2nc(/N=C(\N)NC(=O)c3ccccc3)nc(C)c2c1	-5.82
O=C(CCC1CCCCC1)N[C@@H](CCc1ccccc1)C(=O)c1nc2cc([N+](=O)[O-])ccc2o1	-1.83
CCOC(=O)N1CCc2c(sc3[nH]c(=O)n(Cc4ccccc4)c(=O)c23)C1	0.813
CC(C)C[C@H](NC(=O)N1CCN(C(c2ccccc2)c2ccc(Cl)cc2)CC1)C(=O)NCC#N (stereo partly shown)	-5.2
NC(=O)/C=C/c1cccc([N+](=O)[O-])c1	2.94
Cn1c2ccccc2c2c(C(=O)NCc3ccc(F)cc3)cn(C3CCCCC3)c(=O)c21	3.48
COc1ccccc1C1CC(=O)N(C)C2=C1C(=O)CC(C)(C)C2 (stereo not shown)	-6.88
Cc1ccc(/C=C2/SC(=O)NC2=O)c(C)c1	4.38
CCCOc1ccc(C(=O)CCN2CCN(C(=O)OCC)CC2)cc1	0.189
CCOC(=O)N1CCC(NCCN(C)C)CC1	0.217
O=C1CC(c2cccc(Cl)c2Cl)c2ccc3ccccc3c2N1 (stereo not shown)	-2.35
CCOC(=O)c1cnc2ccc(OCC)cc2c1NCCc1ccccc1	-6.86

Compound	% Inhibition @ 10 uM [%]
CCOCCCNC(=O)C1CCCCN1S(=O)(=O)c1ccc(F)cc1 (stereo not shown)	-9.05
Cc1oc2ccc(O)c(CN(C)Cc3ccccc3)c2c1C(=O)NC1CCCCC1	-2.99
COc1cc(OC)c(-n2c(C)cc(/C=C3\C(=N)N4C(C)=CSC4=NC3=O)c2C)cc1Cl	-1.17
CCCCNC(=O)C1CC(c2ccc(F)cc2)=NO1 (stereo not shown)	-2.16
CCOC(=O)N1CCN(C(=O)Cn2ncn3nc(-c4cccs4)cc3c2=O)CC1	-1.3
O=C(O)C1C2CCC(O2)C1C(=O)Nc1ccc(O)cc1 (stereo not shown)	0.231
CC(C)(C)c1ccc(/C=C2\N=C(c3ccccc3F)OC2=O)cc1	-2.05
COc1cc(OC)cc(-c2cc3nc(C)c(CCC(=O)NC(C)c4ccccc4)c(C)n3n2)c1 (stereo not shown)	1.26
Cc1nc2nc(C)c(CCC(=O)O)c(C)n2n1	2.39
C=CCNC(=O)/C(C#N)=C/c1c(Oc2cccc(C)c2C)nc2ccccn2c1=O	3.63
CC1=C(C(=O)Nc2ccc(Br)cc2)C(c2ccc(Cl)cc2)NC(=O)N1 (stereo not shown)	1.35
Cc1cc(C(F)F)n2nc(C(=O)Nc3c(F)cc(F)cc3Br)nc2n1	-1.28
COc1cccc(CN2CCN(Cc3ccccc3Cl)CC2)c1OC	-5.23
O=C(CSc1nc2ccccc2s1)Nc1ccc(Cl)c(C(=O)O)c1	2.7
COc1ccc(C(=O)NCC(C)(C)CNC(=O)c2ccc(OC)cc2)cc1	5.18
Oc1nc2cnccc2n1-c1ccccc1	-8.21
COCCNS(=O)(=O)c1cc(-c2nn(C)c(=O)c3ccccc23)ccc1C	-3.96
CCCCN1C(=O)NC(=O)/C(=C\c2cn(Cc3ccccc3)c3ccccc23)C1=O	-5.01
Cc1ccc(S(=O)(=O)N2CCC(C(=O)N3CCC(C(=O)NCCc4ccccc4)CC3)CC2)cc1	2.05
